Source: the RNAGym collection of RNA variant scans (doi:10.7554/elife.90254)
Read counts are not given, so values of variants with three or more changes are uncertain.

B1: LINE1-mini (parent)
chain: GGCAGAGCUCAACACAGCGUGGCAAAGUGGCUGUGGCUAGACUGCC

Variants of: B1
Assay: self-cleavage, relative activity (ratio to wild type); higher = more cleavage; in vitro, sequencing; the parent is a self-cleaving ribozyme
C10A A12G A39U gave a self-cleavage of 0.02.
For G21A A24G C37A G40U, the self-cleavage was 0.37.
G5U G35U U43A showed a self-cleavage of 0.01.
G2U A14G A16C G33U U38C gave a self-cleavage of 0.
Work on G2C A14G G21C yielded a self-cleavage of 0.07.
In the case of C15A A26C C31A C37G, the self-cleavage is reported as 0.02.
With C18U G30C A41U the self-cleavage was 0.42.
For G1A G27C G44U, the self-cleavage was 0.63.
Variant A16U G21U A25G has a self-cleavage of 0.11.
In the case of G2A G19A C46A, the self-cleavage is reported as 0.63.
G17C A24U G40U gave a self-cleavage of 0.01.
Work on C3U C10U G36C G40C yielded a self-cleavage of 0.04.
For C15A C18G U34A G44A, the self-cleavage was 0.02.
Work on G1A C15G G17U U43G yielded a self-cleavage of 0.12.
With C3A C23G G30U G33C the self-cleavage was 0.07.
Variant C3A C31A U34C has a self-cleavage of 0.05.
C3U A24U A41C showed a self-cleavage of 0.07.
For C15A G29U U34C, the self-cleavage was 0.03.
Variant A12U U20G G35U has a self-cleavage of 0.03.
Work on G1C C23U G27U C42A C46G yielded a self-cleavage of 0.03.
Variant G7U G19C G40U has a self-cleavage of 0.18.
G2A G22A A25G G44C gave a self-cleavage of 0.7.
Work on A4G G17A A39U yielded a self-cleavage of 0.03.
Variant G21U G30U C37G U38G has a self-cleavage of 0.01.
Work on A6C G7U G29C yielded a self-cleavage of 0.03.
A16U C23U U32A G40C showed a self-cleavage of 0.08.
In the case of G5U A11C C18U C23A U38C A41U, the self-cleavage is reported as 0.
In the case of C3U C8G C10A A16G G27C C37A, the self-cleavage is reported as 0.01.
U9G G17A A26G U43C showed a self-cleavage of 0.01.
For G19U U32G G40A A41C, the self-cleavage was 0.05.
C3A G22C G44C showed a self-cleavage of 0.23.
Variant G21U C31A G35C has a self-cleavage of 0.02.
In the case of A14C U28G G30C, the self-cleavage is reported as 0.02.
For G21C C23U G33A U38A, the self-cleavage was 0.23.
G22C G29U U34C G36A gave a self-cleavage of 0.04.
Variant G7A C8G A24C has a self-cleavage of 0.11.
Variant C13G A14U C23G G35U C45A has a self-cleavage of 0.09.
A25C C31G U34A showed a self-cleavage of 0.
A12U G22A U38A A41C gave a self-cleavage of 0.01.
A11U C31U G40C showed a self-cleavage of 0.01.
G1A U9A A26G showed a self-cleavage of 0.43.
In the case of A4C C8A G17U A24C G35U, the self-cleavage is reported as 0.05.
G1A A6C U9A C13A A16U C23G G30C showed a self-cleavage of 0.05.
C31A G33A U34G C46G showed a self-cleavage of 0.02.
Variant A4G A12G A24U C46U has a self-cleavage of 0.
For C3U C8U A41G C46A, the self-cleavage was 0.56.
Variant U28A U38G A39C has a self-cleavage of 0.
For C15A C23A U34A A41U, the self-cleavage was 0.18.
C10U C13U U32A G40A gave a self-cleavage of 0.02.
With A14G U20A C42U the self-cleavage was 0.05.
Work on G5A C8G G35A C37U C42U yielded a self-cleavage of 0.07.
G1U A12U U20C showed a self-cleavage of 0.06.
In the case of C3A A12C C18A, the self-cleavage is reported as 0.07.
For G2C A4U C8U U20C A39G, the self-cleavage was 0.07.
With A4G G7A G17U G22A C23G A26G the self-cleavage was 0.25.
With A16G C31G C46A the self-cleavage was 0.02.
U28A C31U G36U C46A showed a self-cleavage of 0.04.
For A12U A39G G40U, the self-cleavage was 0.14.
With G5C C13G U20C C37U A39G the self-cleavage was 0.02.
C8A G19A U28G showed a self-cleavage of 0.3.
With A6C C13G G35A the self-cleavage was 0.05.
G1A A6C C18U G44A gave a self-cleavage of 0.07.
With G1C A25C G40U U43G the self-cleavage was 0.02.
For C10U C15A C37G, the self-cleavage was 0.02.
For C3A C23G A26C, the self-cleavage was 1.08.
For C10A G27U G29A C37A G40A, the self-cleavage was 0.
In the case of G7A G22A C45G, the self-cleavage is reported as 0.08.
In the case of C13U G17C G30U, the self-cleavage is reported as 0.02.
C10A G19C G30C C42A gave a self-cleavage of 0.01.
G5A G22A A26G G29C U32C showed a self-cleavage of 0.04.
Work on C10A U20A G22U C23A G36U yielded a self-cleavage of 0.01.
Work on G17C C23U A24U C37U yielded a self-cleavage of 0.09.
A6C U28A G40A showed a self-cleavage of 0.13.
C10U A24C C31U G36U showed a self-cleavage of 0.02.
With C10G C18U G44C the self-cleavage was 0.11.
With G21U A26U U34G the self-cleavage was 0.17.
C8U A12C C42G showed a self-cleavage of 0.
For C15A G17C G19U, the self-cleavage was 0.15.
With G2U A4U U9G G33A G35A A39U C42U the self-cleavage was 0.01.
For A6U U9A A12U, the self-cleavage was 0.37.
For C13U C15G U28G C45A, the self-cleavage was 0.01.
Variant C8A C15U A26G C45U has a self-cleavage of 0.45.
Variant C3A A6G C18A U20A C45U has a self-cleavage of 0.04.
With C3G A26G A39C the self-cleavage was 0.08.
With A14G G44C C45G the self-cleavage was 0.08.
Variant A11G A16C U34C C46U has a self-cleavage of 0.01.
C10U A25U G29U U34A showed a self-cleavage of 0.18.
Variant C13A G17C U32G C42A has a self-cleavage of 0.1.
With C10A A24U C42G C45U the self-cleavage was 0.
In the case of A4C C18A G30A U43A, the self-cleavage is reported as 0.05.
Work on U28C G40A C45U yielded a self-cleavage of 0.02.
In the case of A11G U20G C42A, the self-cleavage is reported as 0.01.
A14C G22A C37A A39U C42G showed a self-cleavage of 0.
G1U C3A G17U gave a self-cleavage of 0.49.
Variant A14U A24G G27A A39C has a self-cleavage of 0.03.
For U9C C18G G29A G35A, the self-cleavage was 0.01.
Work on G30A C37U A41C yielded a self-cleavage of 0.02.
Work on G5A A12G U32G yielded a self-cleavage of 0.04.
Variant G1U U34G C42A C45A has a self-cleavage of 0.04.
Work on G29U G35A C37G yielded a self-cleavage of 0.11.
For C3A C37U C46U, the self-cleavage was 0.16.
G1C A16G G33A showed a self-cleavage of 0.02.
With G7U A25C U34C the self-cleavage was 0.04.
With A16G G40U C42U the self-cleavage was 0.13.
With A11G A14U C23U C42U the self-cleavage was 0.03.
With G7A C10A A39U G40C the self-cleavage was 0.
With G33U U38C C46U the self-cleavage was 0.04.
In the case of C3U C13G A14G U20A U34C, the self-cleavage is reported as 0.02.
C10U C31U G40C showed a self-cleavage of 0.05.
U9A A12U U28G gave a self-cleavage of 0.22.
C8A C10U C31G U38A A41C C42U gave a self-cleavage of 0.03.
Variant C23G G27A G33A has a self-cleavage of 0.07.
Work on G5A A14U G17C yielded a self-cleavage of 0.11.
Work on A12C A14G U38A yielded a self-cleavage of 0.
In the case of A4G A6G G19C G21U U34C, the self-cleavage is reported as 0.
G5C A14U U20G gave a self-cleavage of 0.04.
Variant G17A A26U C45G has a self-cleavage of 0.04.
With U9A A11U G35U the self-cleavage was 0.04.
G5C A16G C18A U32G gave a self-cleavage of 0.02.
Variant C13A A14G U20A C42G has a self-cleavage of 0.05.
G2C C13A C15U C18U gave a self-cleavage of 0.01.
For C13A A16G C23U C46G, the self-cleavage was 0.02.
With C3G C37G C45G the self-cleavage was 0.07.
Work on G2A G7C G21U C45A yielded a self-cleavage of 0.02.
G19A G29A C31G gave a self-cleavage of 0.17.
G2C G21A C23A showed a self-cleavage of 0.97.
Work on C3G U28C C37A yielded a self-cleavage of 0.01.
With A12G G17U U34A the self-cleavage was 0.02.
A16C G21A U43C gave a self-cleavage of 0.02.
With A11C A14U U20C the self-cleavage was 0.03.
Variant G5C G7C U9A G35A A41U has a self-cleavage of 0.06.
In the case of C8A A25U G36A A41G, the self-cleavage is reported as 0.97.
Variant U20C G21U U43A has a self-cleavage of 0.33.
For A14U G22A A26G G35A U43C, the self-cleavage was 0.03.
Work on G1A G19C G22A yielded a self-cleavage of 0.31.
G7U A24C C45G showed a self-cleavage of 0.13.
C3U C15A A16U showed a self-cleavage of 0.08.
For C13G A16G G21A C31U, the self-cleavage was 0.03.
Variant C8U G21U U28G C31U G35U has a self-cleavage of 0.08.
Work on G5C G17C C18U G33C G44U yielded a self-cleavage of 0.04.
Variant C13A G17U C31U G35C has a self-cleavage of 0.
G7U G17C G35A C37A G44C showed a self-cleavage of 0.02.
Variant G27U G40A C45U has a self-cleavage of 0.
G27A G30U C37G gave a self-cleavage of 0.02.
For C3U A26C G30C C46A, the self-cleavage was 0.26.
Work on G21U G29U C37A yielded a self-cleavage of 0.01.
For A25G U28C C37A, the self-cleavage was 0.07.
With A12C A16G C23G G29A the self-cleavage was 0.03.
G17U C18U G33A gave a self-cleavage of 0.03.
C23A G40U G44C C45U showed a self-cleavage of 0.03.
A6G U9C A39C gave a self-cleavage of 0.02.
For G1A A24U A26G, the self-cleavage was 0.44.
C3U U28G C31A C37G gave a self-cleavage of 0.09.
G5C C23A C42U gave a self-cleavage of 0.05.
Variant C8U G21A C42U has a self-cleavage of 0.6.
For A11U G36U G44U C45G, the self-cleavage was 0.02.
G7A C8U C10G A39C G40U showed a self-cleavage of 0.01.
In the case of C13U C15A G17U, the self-cleavage is reported as 0.04.
Variant A14U G21A G30A has a self-cleavage of 2.15.
Work on C8A A16C A41G C42U yielded a self-cleavage of 0.31.
U9G G35C C46U gave a self-cleavage of 0.02.
Variant G2A C3U C15G U28A has a self-cleavage of 0.04.
A4U G5A U9A A14U C15G C45U gave a self-cleavage of 0.06.
Variant C3A C15G G22A G29U has a self-cleavage of 0.03.
For U34C G36C A39C, the self-cleavage was 0.01.
With G5U A6U C18A the self-cleavage was 0.1.
Work on C23A C31U G35A C46U yielded a self-cleavage of 0.02.
